# Measurements as given in PubChem BioAssay (NCATS).
# Records with an inconclusive call do not appear. Calls come from the whole dose curve; as a rule, active = well fitted curve in the direction sought with a large enough effect; inconclusive = small, poorly fitted or top-dose-only effect, or another doubt; inactive = no such curve, though single readings can be large; an effect the other way counts as inactive or inconclusive. Some structures have more than one record in an assay (separate samples or runs), and their calls can disagree. Certain results were filed several times, with different values. They are shown here; other results are not. The source may hold further records. The records of an entry are repeated measurements in other runs, samples, wells, individuals or studies. What stands in brackets tells the records apart. The letters are not those of the source and start again with each entry.
# Assay: qHTS of pediatric cancer cell lines to identify multiple opportunities for drug repurposing: Primary screen for OHS-50 cells (AID 1347103); note: nearly all actives have a fitted effect of over 40% in size
# Details: OHS-50 osteosarcoma viability, CellTiter-Glo luminescence, 48 h; series mostly up to 57.3 µM
# Summary of the method: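 Cells (500-1,000/well) rested 5 h, then received compounds for 48 h; metabolically active cells were measured by CellTiter-Glo luminescence. Final concentrations spanned up to 46 µM (MIPE, 11-point) or 0.59 nM-46 µM (NPC, 8-point) in primary screens, 11-point in follow-ups.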
# Potency is the fitted concentration of half-maximal effect.
row,SMILES,Potency
1,Cn1cnc2c1c(=O)[nH]c(=O)n2C,inactive [sample A] and active: 19.3 µM [sample B]
2,Nc1nc2c(ncn2COC(CO)CO)c(=O)[nH]1,active: 27.3 µM [sample A] and inactive [sample B]
3,NC(=O)NO,inactive [sample A] and active: 7.69 µM [sample B]

# Assay: qHTS of pediatric cancer cell lines to identify multiple opportunities for drug repurposing: Primary screen for RD cells (AID 1347104); note: nearly all actives have a fitted effect of over 55% in size
# Details: RD rhabdomyosarcoma viability, CellTiter-Glo luminescence, 48 h; series mostly up to 46 µM
# Summary of the method: (§1)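 Luminescence from CellTiter-Glo served as readout of metabolically active cells after 48 h compound exposure. Titrations: MIPE 11-point, from 0.78 nM; NPC 8-point, from 0.59 nM (final). Concentration-response curves came straight from the primary screen.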
row,SMILES,Potency
1,CC12CC3CC(C)(C1)CC(N)(C3)C2,active: 18.7 µM [sample A] and inactive [sample B]
2,Cn1cnc2c1c(=O)[nH]c(=O)n2C,inactive [sample A] and active: 26.4 µM [sample B]
3,CC(C(=O)O)c1cccc(C(=O)c2ccccc2)c1 (stereo not given),inactive [sample A] and active: 29.6 µM [sample B]
4,OCCN(CCO)c1nc(N2CCCCC2)c2nc(N(CCO)CCO)nc(N3CCCCC3)c2n1,active: 29.6 µM [sample A] and inactive [sample B]
5,CN1CCC(=C2c3ccccc3CC(=O)c3sccc32)CC1,active: 37.2 µM [sample A] and inactive [sample B]
6,CCC1(c2ccccc2)C(=O)NCNC1=O,active: 16.6 µM [sample A] and inactive [sample B]
7,CC(C)NCC(O)c1ccc(O)c(O)c1 (stereo not given),active: 3.32 µM [sample A] and inactive [sample B]
8,NC(=O)NO,inactive [sample A] and active: 3.32 µM [sample B]
9,CC(C)C(=O)Nc1ccc([N+](=O)[O-])c(C(F)(F)F)c1,inactive [sample A] and active: 935 nM [sample B]

# Assay: qHTS of pediatric cancer cell lines to identify multiple opportunities for drug repurposing: Primary screen for MG 63 (6-TG R) cells (AID 1347105); note: nearly all actives have a fitted effect of over 50% in size
# Details: MG 63 (6-TG R) viability, CellTiter-Glo, 48 h; series mostly up to 46 µM
# Summary of the method: as §1
row,SMILES,Potency
1,Cn1cnc2c1c(=O)[nH]c(=O)n2C,inactive [sample A] and active: 23.5 µM [sample B]
2,Nc1nc2c(ncn2COC(CO)CO)c(=O)[nH]1,active: 29.6 µM [sample A] and inactive [sample B]
3,OCCN(CCO)c1nc(N2CCCCC2)c2nc(N(CCO)CCO)nc(N3CCCCC3)c2n1,active: 29.6 µM [sample A] and inactive [sample B]
4,CN(C)CCCN1c2ccccc2CCc2ccc(Cl)cc21,active: 372 nM [sample A] and inactive [sample B]
5,CCC1(c2ccccc2)C(=O)NCNC1=O,active: 5.9 µM [sample A] and inactive [sample B]
6,CC(C)NCC(O)c1ccc(O)c(O)c1 (stereo not given),active: 5.9 µM [sample A] and inactive [sample B]
7,NC(=O)NO,inactive [sample A] and active: 743 nM [sample B]
8,CC(C)C(=O)Nc1ccc([N+](=O)[O-])c(C(F)(F)F)c1,inactive [sample A] and active: 9.35 µM [sample B]
